Our source for the inhibition values is PubChem BioAssay AID485344 (National Center for Advancing Translational Sciences (NCATS), 2010).

Among all 340,000 compounds or so, about 6,900 (2%) were called active. Rule as the data show it: active = inhibition above about 30%; inactive = below that, where a call was filed. This is a selection; strong and weak results do not stand in their true shares. Where no call is shown, the source filed none.

The target in this test is D(2) dopamine receptor (Homo sapiens) (UniProt P14416). The test is described as follows: HTS Assay for Allosteric Antagonists of the Human D2 Dopamine Receptor: Primary Screen for Antagonists. Also: 0% is about no effect. Conditions: HEK293 TREx D2 cells, calcium flux, dopamine EC80; at 10 µM; stronger effect = higher value. The method in brief: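 Inhibition of EC80 dopamine-driven calcium flux, recorded kinetically, defines activity here; cells are a tetracycline-induced HEK293 T-REx line expressing force-coupled D2.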
Chain of UniProt P14416 (P14416 whole entry, looked up): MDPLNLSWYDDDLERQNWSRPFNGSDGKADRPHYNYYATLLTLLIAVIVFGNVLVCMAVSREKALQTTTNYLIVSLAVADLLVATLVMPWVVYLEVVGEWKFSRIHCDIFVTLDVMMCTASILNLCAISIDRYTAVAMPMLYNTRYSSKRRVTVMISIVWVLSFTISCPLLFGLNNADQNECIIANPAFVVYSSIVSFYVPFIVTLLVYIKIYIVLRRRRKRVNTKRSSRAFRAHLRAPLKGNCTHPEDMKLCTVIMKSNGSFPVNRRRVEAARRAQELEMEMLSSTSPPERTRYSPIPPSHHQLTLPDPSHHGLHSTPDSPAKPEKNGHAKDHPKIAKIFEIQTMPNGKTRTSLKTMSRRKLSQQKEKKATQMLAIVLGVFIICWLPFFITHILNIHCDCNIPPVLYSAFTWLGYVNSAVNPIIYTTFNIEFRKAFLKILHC
On the technique in general: Calcium assays in cells follow changes in intracellular calcium, usually with a dye or a luminescent sensor.
Regarding `CCn1cc(C(=O)N2CCN(c3cccc(Cl)c3)CC2)c(=O)c2cc(S(=O)(=O)N3CCOCC3)ccc21`, the inhibition came to 7.84%.

Take `Cc1ccc(Cc2nc3ccccc3nc2SCC(=O)N2CCc3ccccc32)cc1`: the inhibition was 6.37%.

In the case of `COc1cc(OC)c(NC(=O)c2c(C)oc3ncn(C)c(=O)c23)cc1Cl`, the inhibition was determined as 12.7%.

In the case of `CCOc1ccc(CCNC(=O)CCc2c(C)nc3c(c(C)nn3-c3ccccc3)c2C)cc1OCC`, the inhibition was -4.34%.

Regarding `CCOc1ccc(NC(=O)c2ccc(NC(=O)CCS(=O)(=O)c3cccs3)cc2)cc1`, the inhibition is -14.4%.

Consider `Oc1ccccc1Nc1nc(-c2ccccc2)c2cc(Cl)ccc2n1`, for which the inhibition is -11.3%.

In the case of `O=C(CSc1nc2nccnc2c(=O)n1CCc1c[nH]c2ccccc12)Nc1ccccc1F`, the inhibition was -9.95%.

For the compound `Cc1cccc(OCCCC(=O)Nc2sc3c(c2C(N)=O)CCC(C)C3)c1` (stereo not drawn), the inhibition came out at 7.39%.

On to `FC(F)(F)c1cccc(N2CCN(Cc3ccoc3)CC2)c1`, for which the inhibition is active: 103%.

As to `COc1ccc2c(CNCC(C)c3ccccc3)c(C(=O)O)n(Cc3ccc(F)cc3Cl)c2c1` (stereo not drawn), the inhibition is -0.535%.

For the compound `O=C1CS(=O)(=O)C2(C(=O)N(Cc3cccc(F)c3)c3ccccc32)N1c1ccccc1` (stereo not drawn), the inhibition came to 3.04%.

For the compound `COc1ccc(/C=C(\C#N)c2nc(-c3cc(Cl)ccc3OC)cs2)cc1`, the inhibition worked out at 8.03%.

In the case of `CC1CCN(S(=O)(=O)c2ccc3c(c2)N(CC(=O)NCc2ccccc2)C(=O)CO3)CC1`, the inhibition was found to be 18.6%.

As to `Cc1[nH]n2c(=O)c3c(nc2c1-c1ccc(F)cc1)CCCC3`, the inhibition was active: 35.6%.

Regarding `COC(=O)c1ccc(Cl)cc1NC(=O)N1CC=C(c2c[nH]c3ccccc23)CC1`, the inhibition is -4.91%.

In the case of `O=C(Cn1ncc2c(=O)oc3ccccc3c21)Nc1cc(F)ccc1F`, the inhibition is -1.07%.

Regarding `COc1ccc(N2CCN(C(=O)c3cc4c(-c5ccccc5F)nn(C)c4s3)CC2)cc1`, the inhibition worked out at 4.23%.

In the case of `COc1ccc(OC)c(NC2=C(c3ccccc3)C(=O)c3ccccc32)c1`, the inhibition was -4.18%.

As for `COc1ccc(-c2nn(CC(=O)NC3CCCC3)c3c2cnc2ccc(F)cc23)cc1`, the inhibition was 17%.

For the compound `O=C(CCC(=O)N1Cc2ccccc2Oc2ncccc21)Nc1ccc(Cl)cc1`, the inhibition is -1.22%.

As to `COc1ccc(/C=N/Nc2nnc(-c3ncc[nH]3)c3ccccc23)cc1`, the inhibition was active: 47.4%.

With `CCOc1ccccc1-n1ccnc(NCc2ccc(F)cc2)c1=O`, the inhibition stood at 4.46%.

Regarding `Cc1cccc(NC(=O)Nc2nnc(N(C)C3CCCCC3)s2)c1C`, the inhibition was 10.2%.

Turning to `Cc1nn(CC(=O)NCc2ccco2)c(=O)c2cc3ccccc3n12`, the inhibition is 6.45%.

Regarding `C=CCn1c(Oc2cc(C)ccc2C)nc2c1c(=O)n(C)c(=O)n2C`, the inhibition was active: 30%.

Turning to `CCc1ccccc1N(C)C(=O)c1cn(CC(C)C)c(=O)c2cc(OC)c(OC)cc12`, the inhibition is -19.7%.

For the compound `Cc1ccccc1CNC(=O)c1ccc(NC(=O)c2nsc3ccccc23)cc1`, the inhibition was -19.6%.

For `O=C(Cn1c(=O)oc2cc(S(=O)(=O)N3CCCCCC3)ccc21)Nc1cccc(C(F)(F)F)c1`, the inhibition is -7.68%.

For the compound `O=C1Cc2cc(S(=O)(=O)N3CCN(c4ccccc4)CC3)ccc2N1`, the inhibition turned out to be 7.72%.

Consider `Cc1ccc(-c2nc(C(=O)NCc3ccc(Cl)cc3)c3n2CCCCC3)cc1`, for which the inhibition turned out to be 13.7%.

Turning to `Cc1ccc(N2CC3=C(C2=O)C(c2ccc(Br)cc2)NC(=O)N3C)cc1` (stereo not drawn), the inhibition is -11.8%.

Take `Cc1cc[n+](CC(=O)N2CCCc3ccccc32)cc1`: the inhibition was active: 38.8%.

On to `O=C1c2ccccc2C(=O)N1CCc1nc2ccccc2c(=O)n1Cc1ccco1`, for which the inhibition is active: 40.4%.

`Cc1ccc(CNC(=O)CC2Oc3ccccc3NC2=O)cc1` (stereo not drawn): the inhibition stood at 15.1%.

Take `CCN(C(=O)CSc1nc2ccccc2n1CC(=O)Nc1cccc(C#N)c1)c1ccccc1`: the inhibition amounted to 17.3%.

Turning to `Cc1cc(NC(=O)CN2C(=O)C(C)(C)c3ccccc32)ccc1Br`, the inhibition was -27.2%.

With `COc1ccc(C(CC(=O)Nc2ccc(F)c(Cl)c2)N2Cc3ccccc3C2=O)cc1OC` (stereo not drawn), the inhibition is 19.6%.

Take `CCOC(=O)C1CCCN(C(=O)Cn2ncc3c([nH]c4ccccc43)c2=O)C1` (stereo not drawn): the inhibition amounted to 2.56%.

For `CCC(=O)N1CCc2cc(Br)cc(S(=O)(=O)NCCc3ccc(OC)c(OC)c3)c21`, the inhibition was -18%.

For the compound `O=C(NCCCc1nc2ccccc2n1Cc1ccccc1Cl)C1CCCCC1`, the inhibition was found to be 6.83%.

On to `CC(=O)C1=C(OC(=O)C(C)C)c2ccccc2S(=O)(=O)N1Cc1ccccc1`, for which the inhibition was -4.74%.

Consider `CCn1c(SCc2ccccc2)nnc1-c1nonc1NC(C)=O`, for which the inhibition was -17%.

Consider `Cc1[nH]n2c(=O)cc(-c3ccccc3Cl)nc2c1-c1ccccc1`, for which the inhibition was -16.5%.

As to `CCOc1ccccc1OCCNC1CCCC1`, the inhibition is active: 61.8%.

As for `COc1cc(NC(=O)c2nnn(Cc3ccc(F)cc3)c2N)cc(OC)c1`, the inhibition was -17.2%.

With `Cc1ccccc1C(=O)N1CCC(c2nc3ccccc3s2)CC1`, the inhibition was -13%.

On to `CCOc1ccc(CCNC(=O)c2ccc3c(c2)c(C)c(C)n3C)cc1`, for which the inhibition is -2.69%.

For the compound `COc1cc(C(=O)N(Cc2ccc(C(C)C)cc2)C2CCS(=O)(=O)C2)cc(OC)c1OC` (stereo not drawn), the inhibition is -9.84%.

Regarding `Cc1nn(C)c(C)c1/C=N/NC(=O)CCn1cc([N+](=O)[O-])cn1`, the inhibition was active: 32%.

For `CSc1nc2sc3c(c2c(=O)n1-c1ccc(C)c(Cl)c1)CCN(C(C)=O)C3`, the inhibition was -4.35%.

Take `CCCn1c(SCC(=O)NNC(=O)c2ccccc2)nnc1-c1cccnc1`: the inhibition was active: 31.5%.

With `COc1ccc(NC(=O)c2cc(-c3ccccc3OC)on2)cc1`, the inhibition was active: 32.5%.

For `CCOC(=O)c1cnn(-c2ccc(OC)cc2)c1C1CCN(C(=O)OC(C)(C)C)CC1`, the inhibition came out at 11.4%.

Turning to `Cn1nc(C(=O)Nc2cc(F)ccc2F)c2c1-c1ccccc1SC2`, the inhibition was determined as 10.1%.

As to `CC1CCCCN1c1csc2ccc(F)cc2c1=O` (stereo not drawn), the inhibition was -14.3%.

As for `Cc1c(/C=N\NC(=O)C2COc3ccc(C(C)(C)C)cc3O2)c2ccccc2n1C` (stereo not drawn), the inhibition was active: 58%.

In the case of `COc1ccccc1N1CCN(C(=O)CCc2c(C)nn(-c3ccc(N4CCCC4)nn3)c2C)CC1`, the inhibition was -8.06%.

`Cc1cc(C)c2oc(-c3ccc(NC(=O)c4cc(Br)ccc4Cl)cc3)nc2c1`: the inhibition turned out to be 8.13%.

For the compound `Cc1ccc([N+](=O)[O-])cc1NC(=O)Nc1onc(C)c1C`, the inhibition is active: 46.6%.

For the compound `Cc1ccc(NC(=O)CCc2nc3cccnc3n2-c2ccccc2)cc1`, the inhibition is -7.26%.

As for `Cc1coc2cc3oc(=O)c(CC(=O)NCCc4ccccc4F)c(C)c3cc12`, the inhibition was -5.79%.

On to `O=C(Cn1c(=O)n(Cc2ccc(C(=O)NCc3ccccc3Cl)cc2)c(=O)c2ccccc21)Nc1ccc(F)cc1`, for which the inhibition came to 3.48%.

For `Cc1c(-c2ccccc2)n(-c2ccc(Cl)cc2)c2nc3c(c(=O)n(C)c(=O)n3C)n12`, the inhibition amounted to 7.57%.

For orientation: inhibition means the relative decrease from the control value, in per cent.
